We go through 23 compounds from article PMC4336329 (PLoS ONE, 2015).

SMILES strings stand for the structures. Among all 310,000 compounds or so, about 2,200 (0.71%) showed an effect of 50% or more. The effect is printed as a negative number. This is one part of the list.

For this assay, the target named is human ether-à-go-go-related gene (hERG) potassium channel (human, UniProt Q12809). Briefly: primary screen, population patch clamp on CHO cells stably expressing hERG.
human ether-à-go-go-related gene (hERG) potassium channel, sequence (Q12809 whole entry, looked up): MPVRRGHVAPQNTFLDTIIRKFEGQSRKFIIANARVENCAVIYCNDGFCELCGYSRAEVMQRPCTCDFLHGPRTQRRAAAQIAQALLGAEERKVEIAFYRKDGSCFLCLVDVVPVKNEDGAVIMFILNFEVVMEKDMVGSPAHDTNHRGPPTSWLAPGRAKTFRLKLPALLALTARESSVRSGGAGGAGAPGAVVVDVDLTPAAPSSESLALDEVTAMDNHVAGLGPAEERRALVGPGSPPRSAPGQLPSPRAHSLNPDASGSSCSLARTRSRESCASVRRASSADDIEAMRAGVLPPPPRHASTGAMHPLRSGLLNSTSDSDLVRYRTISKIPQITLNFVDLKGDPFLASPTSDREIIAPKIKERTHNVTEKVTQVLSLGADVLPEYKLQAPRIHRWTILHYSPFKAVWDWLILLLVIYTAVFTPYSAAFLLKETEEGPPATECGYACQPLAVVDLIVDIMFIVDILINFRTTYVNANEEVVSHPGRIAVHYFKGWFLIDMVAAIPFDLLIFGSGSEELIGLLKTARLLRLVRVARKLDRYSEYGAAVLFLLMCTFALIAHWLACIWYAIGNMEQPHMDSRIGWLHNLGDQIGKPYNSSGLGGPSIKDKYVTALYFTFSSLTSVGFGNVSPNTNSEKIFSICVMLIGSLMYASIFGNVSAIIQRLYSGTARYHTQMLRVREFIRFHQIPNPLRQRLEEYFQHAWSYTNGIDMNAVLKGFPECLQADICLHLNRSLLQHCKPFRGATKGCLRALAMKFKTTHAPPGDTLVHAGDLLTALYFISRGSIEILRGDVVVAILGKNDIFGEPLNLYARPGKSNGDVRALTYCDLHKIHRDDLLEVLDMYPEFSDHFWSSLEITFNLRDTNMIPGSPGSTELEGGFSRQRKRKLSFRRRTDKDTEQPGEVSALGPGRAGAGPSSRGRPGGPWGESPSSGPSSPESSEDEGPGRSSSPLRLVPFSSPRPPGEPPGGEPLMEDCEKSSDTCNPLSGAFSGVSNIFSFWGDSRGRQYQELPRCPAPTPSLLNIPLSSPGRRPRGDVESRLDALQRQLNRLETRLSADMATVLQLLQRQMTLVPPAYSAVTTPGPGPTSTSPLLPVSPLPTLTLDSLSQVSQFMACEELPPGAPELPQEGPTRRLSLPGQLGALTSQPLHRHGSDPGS
As to `O=C(N/C(=C\c1ccccc1)C(=O)N1CCOCC1)c1ccc(Br)o1`, the “hERG current change (%, negative = inhibition) at 1uM” value was 10.6%.

`Cc1nc(NC(=O)c2ccc([N+](=O)[O-])cc2Cl)sc1C(=O)N(C)C`: the “hERG current change (%, negative = inhibition) at 1uM” value was found to be 10.3%.

Turning to `CC(C)(C)NC(=O)NC(=O)CSc1ncn[nH]1`, the “hERG current change (%, negative = inhibition) at 1uM” value worked out at 13.2%.

Take `C/C=C\C(=O)Nc1cccc(C2=NOC3(C2)C[C@H](C(N)=O)N(C(=O)Cc2ccc([N+](=O)[O-])cc2)C3)c1` (some centres unmarked): the “hERG current change (%, negative = inhibition) at 1uM” value is listed as 4.09%.

`Clc1ccc(Cn2ncc3c(NCc4ccccc4)ncnc32)c(Cl)c1`: the “hERG current change (%, negative = inhibition) at 1uM” value was found to be 10%.

Turning to `O=C(Cn1nc(C(F)(F)F)c2c1CCC2)NCc1ccc(F)cc1`, the “hERG current change (%, negative = inhibition) at 1uM” value is reported as 11.5%.

For the compound `CC(=O)Nc1ccc(SCC(=O)NCCc2ccc(F)cc2)cc1`, the “hERG current change (%, negative = inhibition) at 1uM” value was determined as 4.51%.

Regarding `COc1ccc(-c2csc(N(CC(C)C)C(=O)c3ccco3)n2)cc1`, the “hERG current change (%, negative = inhibition) at 1uM” value was determined as 15.5%.

For the compound `Cc1cc(C)n2c(SCc3nnc(-c4cccs4)o3)nnc2n1`, the “hERG current change (%, negative = inhibition) at 1uM” value was 11.2%.

For the compound `CC1(C)CC(=O)c2cnc(N3CCN(c4ccccc4)CC3)nc2C1`, the “hERG current change (%, negative = inhibition) at 1uM” value stood at 8.02%.

In the case of `CCOc1ccc(-c2cc(CCCC(=O)NCCc3ccc(OC)c(OC)c3OC)no2)cc1`, the “hERG current change (%, negative = inhibition) at 1uM” value was 9.86%.

Take `O=C(COC(=O)c1cc(-c2ccco2)nc2ccccc12)NCc1ccc2c(c1)OCO2`: the “hERG current change (%, negative = inhibition) at 1uM” value was 12.8%.

Regarding `COCCN(C(=O)COC(=O)/C(=C/c1ccccc1)NC(C)=O)c1c(N)n(Cc2ccccc2)c(=O)[nH]c1=O`, the “hERG current change (%, negative = inhibition) at 1uM” value is given as 8.77%.

`CCc1ccccc1NS(=O)(=O)c1ccc2[nH]cc(C(=O)NC3CCCC3)c(=O)c2c1`: the “hERG current change (%, negative = inhibition) at 1uM” value was -2.41%.

With `Cn1nc(-c2ccc(Cl)cc2)cc1NC(=O)CCCC(=O)O`, the “hERG current change (%, negative = inhibition) at 1uM” value is given as 11.5%.

With `O=C(NCc1ccc2c(c1)OCO2)C1CC(c2ccccc2O)=NO1` (centres unmarked), the “hERG current change (%, negative = inhibition) at 1uM” value was 9.44%.

Regarding `Cc1ccc(OCC(=O)Nc2nnc(-c3ccco3)s2)cc1`, the “hERG current change (%, negative = inhibition) at 1uM” value turned out to be 7.55%.

For the compound `COc1ccc(NC(=O)c2[nH]c(C)c(C(C)=O)c2C)cc1`, the “hERG current change (%, negative = inhibition) at 1uM” value is 17.3%.

Turning to `CCCN(C(=O)CSCc1c(C)noc1C)c1c(N)n(Cc2ccccc2)c(=O)[nH]c1=O`, the “hERG current change (%, negative = inhibition) at 1uM” value is given as 20.8%.

Take `COc1cccc(/C=C2/SC(=S)N(CC(=O)NNC(=O)c3ccccc3OC)C2=O)c1`: the “hERG current change (%, negative = inhibition) at 1uM” value worked out at 1.85%.

Turning to `COC(=O)N/N=C/c1ccccc1`, the “hERG current change (%, negative = inhibition) at 1uM” value worked out at 11%.

For the compound `Cc1ccc(-c2nnn(CC(=O)Nc3ccc4nn(-c5ccccc5)nc4c3)n2)o1`, the “hERG current change (%, negative = inhibition) at 1uM” value was determined as 6.12%.

For `O=C(Cn1nnc(-c2cccs2)n1)NNC(=O)c1ccccc1Cl`, the “hERG current change (%, negative = inhibition) at 1uM” value was found to be 5.68%.
